# Hit rate of the full screen: of about 390,000 compounds, about 17,000 (4.4%) were called active. The inconclusive results got no clear call from the source; some entries with a clear call stand among them for comparison. Calls come from the whole dose curve; as a rule, active = well fitted inhibition curve with a large enough effect; inconclusive = small, poorly fitted or top-dose-only effect; inactive = no such curve, though single readings can be large or run the other way. A potency beside an inconclusive call is a rough fit, not a confirmed value.
# Biological target: Lysine-specific demethylase 4A (Homo sapiens) (UniProt O75164)
# Experiment: qHTS Assay for Inhibitors of JMJD2A-Tudor Domain; note: nearly all actives have a fitted effect of over 50% in size
# Details: AlphaScreen JMJD2A-Tudor / H3K4me3 peptide binding; series mostly up to 114 µM
# Potency is the fitted concentration of half-maximal effect; tags give direction and shape of the fitted curve.
# UniProt O75164, sequence (O75164 whole entry, looked up, the tested form may be a part): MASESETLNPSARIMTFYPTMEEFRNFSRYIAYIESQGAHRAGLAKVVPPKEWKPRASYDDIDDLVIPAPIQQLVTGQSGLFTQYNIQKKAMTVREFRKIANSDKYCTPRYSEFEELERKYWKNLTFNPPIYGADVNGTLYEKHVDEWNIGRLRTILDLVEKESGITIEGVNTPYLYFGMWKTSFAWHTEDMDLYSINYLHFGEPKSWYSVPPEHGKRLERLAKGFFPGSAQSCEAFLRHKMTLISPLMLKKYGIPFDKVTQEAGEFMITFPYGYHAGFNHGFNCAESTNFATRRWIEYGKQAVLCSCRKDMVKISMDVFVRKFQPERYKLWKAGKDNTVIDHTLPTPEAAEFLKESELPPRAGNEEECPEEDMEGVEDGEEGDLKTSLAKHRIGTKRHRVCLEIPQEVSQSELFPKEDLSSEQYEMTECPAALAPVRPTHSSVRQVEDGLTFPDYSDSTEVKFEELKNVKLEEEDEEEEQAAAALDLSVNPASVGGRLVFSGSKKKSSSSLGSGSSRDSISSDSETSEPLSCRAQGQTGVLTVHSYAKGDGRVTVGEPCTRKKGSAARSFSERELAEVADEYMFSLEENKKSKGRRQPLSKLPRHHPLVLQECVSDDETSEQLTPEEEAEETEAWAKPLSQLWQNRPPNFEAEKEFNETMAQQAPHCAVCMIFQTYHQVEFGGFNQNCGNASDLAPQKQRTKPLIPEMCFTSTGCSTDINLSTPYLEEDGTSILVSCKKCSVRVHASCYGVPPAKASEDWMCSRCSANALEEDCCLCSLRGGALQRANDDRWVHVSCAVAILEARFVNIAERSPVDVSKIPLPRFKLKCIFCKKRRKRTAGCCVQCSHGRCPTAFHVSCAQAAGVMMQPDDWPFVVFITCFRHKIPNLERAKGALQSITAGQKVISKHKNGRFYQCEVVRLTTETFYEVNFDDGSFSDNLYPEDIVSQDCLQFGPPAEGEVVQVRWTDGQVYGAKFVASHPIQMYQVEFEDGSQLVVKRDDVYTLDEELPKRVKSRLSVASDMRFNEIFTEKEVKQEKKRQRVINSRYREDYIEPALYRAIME
row,SMILES,Potency
1,COC(=O)/C(C#N)=C/c1c(N2CCN(c3ccccc3)CC2)nc2c(C)cccn2c1=O,"inconclusive: 10 µM [inhibitor, full curve]"
2,CCN(CC)S(=O)(=O)c1ccc(NCC2COc3ccccc3O2)c([N+](=O)[O-])c1 (centres undefined),"inconclusive: 31.6 µM [inhibitor, partial curve]"
3,Cc1cc(C)c(Cn2c(C)c(CNCc3ccccc3C)c(C(=O)O)c2C)c(C)c1,"inconclusive: 56.2 µM [inhibitor, partial curve]"
4,Cc1cc(C)n2nc(C(=O)Nc3nccs3)nc2n1,active: 11.2 µM
5,O=c1c2c3c(sc2nc(NCCO)n1CCc1ccccc1)CCCCC3,"inconclusive: 56.2 µM [inhibitor, partial curve]"
6,CCN1C(=O)c2ccccc2Sc2ccc(NC(=O)Nc3ccc(C(C)=O)cc3)cc21,"inconclusive: 56.2 µM [inhibitor, partial curve]"
7,Nc1cc(C(=O)O)ccc1N1CCCCC1,"inconclusive: 63.1 µM [inhibitor, partial curve, poor fit]"
8,O=C(NCC1CCCO1)C(c1cccs1)N(Cc1cccs1)C(=O)c1ccc(-c2ccccc2)[nH]1 (centres undefined),"inconclusive: 56.2 µM [inhibitor, partial curve]"
9,S=C(NC1CC1)N1CCCc2ccccc21,inactive
10,COc1ccc(CN(C)C(C)C(=O)N(C)CC(=O)Nc2ccc(C)cc2)cc1F (centres undefined),inactive
11,CCc1ccc(C(=O)OCC(=O)N(CCOC)c2c(N)n(Cc3ccccc3)c(=O)[nH]c2=O)cc1,inactive
12,COCCNC(=O)c1sc2ncn(CC(=O)N3CCCCC3)c(=O)c2c1C,"inconclusive: 7.08 µM [inhibitor, single point]"
13,CC1CN(c2ccc(NC(=S)NNCCC#N)cc2)CC(C)O1 (centres undefined),"inconclusive: 25.1 µM [inhibitor, partial curve]"
14,O=C(COc1ccc(F)cc1)Nc1nnc(-c2ccncc2)s1,"inconclusive: 89.1 µM [inhibitor, single point]"
15,COc1ccc(S(=O)(=O)Nc2cc(-c3cn4cccc(C)c4n3)ccc2C)cc1C,"inconclusive: 28.2 µM [inhibitor, full curve, poor fit]"
16,Cc1coc2c1c(C)cc1oc(=O)c(CC(=O)NCc3ccc(Cl)cc3)c(C)c12,inactive
17,O=C(NNc1c(Cl)cncc1Cl)c1sccc1Cl,inactive
18,O=C(NCCc1ccc(F)cc1)C(=O)NCC(c1ccc2c(c1)OCO2)N1CCOCC1 (centres undefined),inactive
19,Cc1ccc2nc(-c3c[nH]c4ccccc34)c(Nc3ccccc3)n2c1,"inconclusive: 22.4 µM [inhibitor, full curve]"

# Source: PubChem BioAssay AID504339 (National Center for Advancing Translational Sciences (NCATS), 2011)
